Reference: PMC4076837
These are yes or no findings as the source states them, for the method shown. Binding seen in cells or lysates may run through a third protein. Some results given as binding are weak or reduced against the parent protein; the word gives no strength. Tags and fused reporters may be left off the sequences shown.

Chains of the proteins cited; added tags and fusions are not shown.
UniProt P35573: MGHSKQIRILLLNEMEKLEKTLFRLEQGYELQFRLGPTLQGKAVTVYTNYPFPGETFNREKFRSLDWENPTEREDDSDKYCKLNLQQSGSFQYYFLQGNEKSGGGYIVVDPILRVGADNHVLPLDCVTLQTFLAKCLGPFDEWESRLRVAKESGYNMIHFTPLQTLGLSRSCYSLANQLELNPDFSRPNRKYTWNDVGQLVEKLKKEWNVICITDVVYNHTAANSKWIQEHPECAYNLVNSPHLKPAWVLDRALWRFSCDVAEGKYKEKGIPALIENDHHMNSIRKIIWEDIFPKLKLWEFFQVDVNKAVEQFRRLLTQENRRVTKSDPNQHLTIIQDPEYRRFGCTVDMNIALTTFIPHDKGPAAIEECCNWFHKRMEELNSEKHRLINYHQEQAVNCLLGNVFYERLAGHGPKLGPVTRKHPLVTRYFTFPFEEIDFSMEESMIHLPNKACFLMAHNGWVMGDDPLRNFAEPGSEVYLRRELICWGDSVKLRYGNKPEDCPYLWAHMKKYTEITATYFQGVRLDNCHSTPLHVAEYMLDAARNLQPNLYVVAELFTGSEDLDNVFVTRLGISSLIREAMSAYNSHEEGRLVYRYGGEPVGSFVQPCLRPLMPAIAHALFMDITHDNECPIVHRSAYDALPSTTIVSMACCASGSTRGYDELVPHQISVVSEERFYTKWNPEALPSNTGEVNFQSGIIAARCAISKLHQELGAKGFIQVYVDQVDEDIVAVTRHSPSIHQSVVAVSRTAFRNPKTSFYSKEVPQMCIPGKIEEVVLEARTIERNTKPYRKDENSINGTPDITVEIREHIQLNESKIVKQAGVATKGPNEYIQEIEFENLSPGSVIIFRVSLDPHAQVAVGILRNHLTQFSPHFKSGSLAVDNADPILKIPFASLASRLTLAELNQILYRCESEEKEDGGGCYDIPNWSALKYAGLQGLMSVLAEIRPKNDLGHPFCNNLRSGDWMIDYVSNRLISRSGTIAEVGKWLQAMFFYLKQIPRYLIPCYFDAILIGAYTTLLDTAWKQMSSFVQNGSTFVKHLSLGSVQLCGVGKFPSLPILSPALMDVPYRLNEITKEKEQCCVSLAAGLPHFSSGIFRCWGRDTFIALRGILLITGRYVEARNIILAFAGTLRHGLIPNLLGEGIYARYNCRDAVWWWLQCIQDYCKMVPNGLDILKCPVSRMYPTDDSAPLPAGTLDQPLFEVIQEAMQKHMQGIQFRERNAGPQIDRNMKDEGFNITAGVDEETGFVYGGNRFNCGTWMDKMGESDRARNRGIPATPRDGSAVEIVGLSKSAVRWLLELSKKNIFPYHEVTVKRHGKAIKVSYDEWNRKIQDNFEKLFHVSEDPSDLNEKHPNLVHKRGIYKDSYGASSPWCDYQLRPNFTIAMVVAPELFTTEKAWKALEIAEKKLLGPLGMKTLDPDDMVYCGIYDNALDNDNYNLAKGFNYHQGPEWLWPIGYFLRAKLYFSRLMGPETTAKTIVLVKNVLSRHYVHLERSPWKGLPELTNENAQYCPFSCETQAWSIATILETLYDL
UniProt P70452: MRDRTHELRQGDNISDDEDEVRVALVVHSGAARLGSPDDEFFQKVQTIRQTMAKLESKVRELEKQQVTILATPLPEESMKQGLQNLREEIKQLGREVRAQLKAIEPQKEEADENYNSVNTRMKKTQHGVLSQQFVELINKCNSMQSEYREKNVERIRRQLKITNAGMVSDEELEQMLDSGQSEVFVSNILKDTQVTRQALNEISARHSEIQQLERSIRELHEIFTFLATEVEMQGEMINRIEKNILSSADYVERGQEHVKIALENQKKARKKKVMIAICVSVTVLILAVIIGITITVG
UniProt F8VPN4: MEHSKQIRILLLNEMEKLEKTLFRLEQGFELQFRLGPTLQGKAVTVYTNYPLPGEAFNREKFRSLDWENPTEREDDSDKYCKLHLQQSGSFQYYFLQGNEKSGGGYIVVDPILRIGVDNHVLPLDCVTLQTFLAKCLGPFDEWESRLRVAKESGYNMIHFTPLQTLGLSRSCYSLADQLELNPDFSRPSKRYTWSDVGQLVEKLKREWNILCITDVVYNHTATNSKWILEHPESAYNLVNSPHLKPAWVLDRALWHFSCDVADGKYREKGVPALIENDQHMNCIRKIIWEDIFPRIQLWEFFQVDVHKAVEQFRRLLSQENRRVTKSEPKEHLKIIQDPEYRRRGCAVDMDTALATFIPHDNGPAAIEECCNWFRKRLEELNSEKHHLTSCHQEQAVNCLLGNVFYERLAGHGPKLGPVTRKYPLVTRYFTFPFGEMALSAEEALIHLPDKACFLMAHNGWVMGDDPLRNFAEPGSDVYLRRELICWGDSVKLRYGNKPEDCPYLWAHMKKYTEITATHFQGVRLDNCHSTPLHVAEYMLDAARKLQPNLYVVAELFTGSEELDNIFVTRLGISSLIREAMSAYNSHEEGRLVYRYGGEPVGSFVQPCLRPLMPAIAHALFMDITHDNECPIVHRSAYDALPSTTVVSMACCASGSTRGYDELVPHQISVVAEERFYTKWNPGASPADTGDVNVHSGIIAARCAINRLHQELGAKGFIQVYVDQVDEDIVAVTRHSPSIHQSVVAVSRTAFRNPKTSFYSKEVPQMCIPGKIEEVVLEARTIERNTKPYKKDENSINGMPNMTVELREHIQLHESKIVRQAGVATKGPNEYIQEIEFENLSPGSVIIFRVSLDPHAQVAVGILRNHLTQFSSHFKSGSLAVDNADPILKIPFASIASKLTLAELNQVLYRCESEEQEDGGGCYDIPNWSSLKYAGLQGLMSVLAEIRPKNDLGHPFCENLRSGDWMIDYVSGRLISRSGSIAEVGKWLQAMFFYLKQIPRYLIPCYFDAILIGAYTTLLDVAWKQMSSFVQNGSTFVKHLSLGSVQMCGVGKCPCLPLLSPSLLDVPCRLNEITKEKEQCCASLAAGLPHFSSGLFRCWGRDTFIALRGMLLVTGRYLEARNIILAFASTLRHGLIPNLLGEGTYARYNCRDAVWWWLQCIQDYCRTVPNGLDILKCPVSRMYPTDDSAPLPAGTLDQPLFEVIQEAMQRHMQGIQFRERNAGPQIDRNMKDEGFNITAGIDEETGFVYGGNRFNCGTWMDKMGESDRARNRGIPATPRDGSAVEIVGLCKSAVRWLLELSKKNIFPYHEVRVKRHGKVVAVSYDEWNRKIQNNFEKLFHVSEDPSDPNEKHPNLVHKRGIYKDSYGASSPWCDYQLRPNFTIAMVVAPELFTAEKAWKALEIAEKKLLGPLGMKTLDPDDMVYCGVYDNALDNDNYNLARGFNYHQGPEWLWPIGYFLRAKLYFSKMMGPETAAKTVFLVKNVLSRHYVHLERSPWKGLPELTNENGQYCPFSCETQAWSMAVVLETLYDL

Tests used:
[1] = biological target: T1, GST–STBD1 NDel mutant (human (cDNA from HepG2 cells)) (UniProt O95210); test: pull-down; GST–STBD1 proteins (or GST alone) immobilised on glutathione–sepharose beads, incubated with mouse liver lysate for 90 min at 4°C; washed three times with lysis buffer; Western blot; only the target purified
T1 sequence: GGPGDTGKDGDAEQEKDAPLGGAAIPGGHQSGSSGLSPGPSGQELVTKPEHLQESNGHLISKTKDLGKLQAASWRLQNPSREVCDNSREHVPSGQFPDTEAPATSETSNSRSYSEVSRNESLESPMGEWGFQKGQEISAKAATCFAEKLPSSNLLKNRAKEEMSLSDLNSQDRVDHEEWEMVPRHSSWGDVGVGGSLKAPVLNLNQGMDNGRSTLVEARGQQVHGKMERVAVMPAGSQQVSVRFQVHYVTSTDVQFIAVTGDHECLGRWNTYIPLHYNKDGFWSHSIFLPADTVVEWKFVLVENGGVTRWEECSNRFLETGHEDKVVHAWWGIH

[2] = biological target: FLAG-tagged GDE (glycogen debranching enzyme) (UniProt P35573); test: co-IP; COS cells co-transfected with HA-STBD1 and FLAG-tagged constructs; anti-FLAG immunoprecipitates blotted; lysis buffer 25 mM Tris pH 7.5, 150 mM NaCl, 1% Triton X-100; 2 h at 4°C
FLAG-tagged Laforin = biological target: T2, FLAG-tagged Laforin (UniProt O95278); test: as above
T2 sequence: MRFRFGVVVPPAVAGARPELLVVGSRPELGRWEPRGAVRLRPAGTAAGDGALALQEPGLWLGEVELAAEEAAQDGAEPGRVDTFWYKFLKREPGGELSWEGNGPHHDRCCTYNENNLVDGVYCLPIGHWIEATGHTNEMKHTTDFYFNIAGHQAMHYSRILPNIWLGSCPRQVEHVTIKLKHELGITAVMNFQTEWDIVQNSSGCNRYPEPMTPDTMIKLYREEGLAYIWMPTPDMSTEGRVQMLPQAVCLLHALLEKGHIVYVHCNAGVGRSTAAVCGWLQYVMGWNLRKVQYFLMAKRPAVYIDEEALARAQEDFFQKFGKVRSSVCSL

[3] = biological target: T3, FLAG-tagged GBE1 (glycogen branching enzyme 1) (UniProt Q04446); test: as above
T3 sequence: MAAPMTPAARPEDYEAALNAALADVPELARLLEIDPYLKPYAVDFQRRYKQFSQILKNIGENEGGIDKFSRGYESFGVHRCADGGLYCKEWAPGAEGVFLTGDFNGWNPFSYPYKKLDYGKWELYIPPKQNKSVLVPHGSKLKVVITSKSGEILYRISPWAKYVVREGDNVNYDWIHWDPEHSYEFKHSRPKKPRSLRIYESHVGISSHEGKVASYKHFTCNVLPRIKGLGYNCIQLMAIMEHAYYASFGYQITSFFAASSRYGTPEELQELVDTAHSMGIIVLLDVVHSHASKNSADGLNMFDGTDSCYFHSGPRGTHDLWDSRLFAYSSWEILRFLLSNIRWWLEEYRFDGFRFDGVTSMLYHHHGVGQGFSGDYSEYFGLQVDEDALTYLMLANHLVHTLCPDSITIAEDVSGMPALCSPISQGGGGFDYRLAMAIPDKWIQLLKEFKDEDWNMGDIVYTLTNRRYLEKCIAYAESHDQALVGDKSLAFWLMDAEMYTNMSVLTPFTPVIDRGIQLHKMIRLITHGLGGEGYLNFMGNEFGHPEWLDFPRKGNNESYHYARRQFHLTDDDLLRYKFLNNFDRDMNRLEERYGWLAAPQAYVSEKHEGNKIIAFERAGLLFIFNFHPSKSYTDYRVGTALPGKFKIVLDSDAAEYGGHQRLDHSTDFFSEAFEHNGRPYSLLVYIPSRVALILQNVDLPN

[4] = biological target: T4, FLAG-tagged PTG (protein targeting to glycogen), Q9UQK1; test: as above; conditions: remark: other sources report otherwise
T4 chain: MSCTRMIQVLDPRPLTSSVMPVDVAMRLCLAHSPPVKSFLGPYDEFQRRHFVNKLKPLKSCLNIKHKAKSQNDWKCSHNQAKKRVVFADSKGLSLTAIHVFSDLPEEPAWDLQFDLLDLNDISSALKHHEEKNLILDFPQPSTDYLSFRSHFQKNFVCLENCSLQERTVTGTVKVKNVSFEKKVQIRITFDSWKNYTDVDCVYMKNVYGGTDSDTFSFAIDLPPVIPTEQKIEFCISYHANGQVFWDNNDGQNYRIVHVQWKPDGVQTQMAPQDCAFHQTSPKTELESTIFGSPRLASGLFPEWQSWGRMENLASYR

With “endogenous STX4a (syntaxin 4a) of mouse liver (from UniProt P70452 1-298)” the binding [1] was “no binding”.

In the case of “endogenous GDE (glycogen debranching enzyme) of mouse liver (from UniProt F8VPN4 1-1532)”, the binding [1] is reported as “binds”.

B1: HA-tagged STBD1 (starch-binding domain-containing protein 1), wild type (protein, UniProt O95210 1-358)
chain: MGAVWSALLVGGGLAGALFVWLLRGGPGDTGKDGDAEQEKDAPLGGAAIPGGHQSGSSGLSPGPSGQELVTKPEHLQESNGHLISKTKDLGKLQAASWRLQNPSREVCDNSREHVPSGQFPDTEAPATSETSNSRSYSEVSRNESLESPMGEWGFQKGQEISAKAATCFAEKLPSSNLLKNRAKEEMSLSDLNSQDRVDHEEWEMVPRHSSWGDVGVGGSLKAPVLNLNQGMDNGRSTLVEARGQQVHGKMERVAVMPAGSQQVSVRFQVHYVTSTDVQFIAVTGDHECLGRWNTYIPLHYNKDGFWSHSIFLPADTVVEWKFVLVENGGVTRWEECSNRFLETGHEDKVVHAWWGIH
B1 was tested, and the binding [2] was “binds”, the binding (FLAG-tagged Laforin) was “binds” and the binding [3] was “binds”.

B2: endogenous Laforin of mouse liver (enzyme, UniProt Q9WUA5 1-330)
chain: MLFRFGVVVPPAVAGARQELLLAGSRPELGRWEPHGAVRLRPAGTAAGAAALALQEPGLWLAEVELEAYEEAGGAEPGRVDTFWYKFLQREPGGELHWEGNGPHHDRCCTYNEDNLVDGVYCLPVGHWIEATGHTNEMKHTTDFYFNIAGHQAMHYSRILPNIWLGSCPRQLEHVTIKLKHELGVTAVMNFQTEWDIIQNSSGCNRYPEPMTPDTMMKLYKEEGLSYIWMPTPDMSTEGRVQMLPQAVCLLHALLENGHTVYVHCNAGVGRSTAAVCGWLHYVIGWNLRKVQYFIMAKRPAVYIDEDALAQAQQDFSQKFGKVHSSICAL
In the case of B2, the binding [1] is reported as “binds”.

B3: HA-tagged STBD1 (starch-binding domain-containing protein 1), wild type, O95210 1-358 (protein)
chain: MGAVWSALLVGGGLAGALFVWLLRGGPGDTGKDGDAEQEKDAPLGGAAIPGGHQSGSSGLSPGPSGQELVTKPEHLQESNGHLISKTKDLGKLQAASWRLQNPSREVCDNSREHVPSGQFPDTEAPATSETSNSRSYSEVSRNESLESPMGEWGFQKGQEISAKAATCFAEKLPSSNLLKNRAKEEMSLSDLNSQDRVDHEEWEMVPRHSSWGDVGVGGSLKAPVLNLNQGMDNGRSTLVEARGQQVHGKMERVAVMPAGSQQVSVRFQVHYVTSTDVQFIAVTGDHECLGRWNTYIPLHYNKDGFWSHSIFLPADTVVEWKFVLVENGGVTRWEECSNRFLETGHEDKVVHAWWGIH
For B3, the binding [4] was “no binding”.
